Values joined by “and” are separate entries in the source; they are usually repeats but may differ in a detail not shown here. Equal entries are not always repeated. Screen size: about 390,000 compounds; about 4,000 (1%) were called active. This list was built around the results that the source calls inconclusive (neither active nor inactive); the mix of calls is not that of the screen. Calls come from the whole dose curve; as a rule, active = well fitted inhibition curve with a large enough effect; inconclusive = small, poorly fitted or top-dose-only effect; inactive = no such curve, though single readings can be large or run the other way. Potencies beside an inconclusive call are fits to weak or partial responses and may not hold up.
Biological target: Thioredoxin reductase 1, cytoplasmic (Rattus norvegicus) (UniProt O89049)
Sequence of UniProt O89049 (O89049 whole entry, looked up): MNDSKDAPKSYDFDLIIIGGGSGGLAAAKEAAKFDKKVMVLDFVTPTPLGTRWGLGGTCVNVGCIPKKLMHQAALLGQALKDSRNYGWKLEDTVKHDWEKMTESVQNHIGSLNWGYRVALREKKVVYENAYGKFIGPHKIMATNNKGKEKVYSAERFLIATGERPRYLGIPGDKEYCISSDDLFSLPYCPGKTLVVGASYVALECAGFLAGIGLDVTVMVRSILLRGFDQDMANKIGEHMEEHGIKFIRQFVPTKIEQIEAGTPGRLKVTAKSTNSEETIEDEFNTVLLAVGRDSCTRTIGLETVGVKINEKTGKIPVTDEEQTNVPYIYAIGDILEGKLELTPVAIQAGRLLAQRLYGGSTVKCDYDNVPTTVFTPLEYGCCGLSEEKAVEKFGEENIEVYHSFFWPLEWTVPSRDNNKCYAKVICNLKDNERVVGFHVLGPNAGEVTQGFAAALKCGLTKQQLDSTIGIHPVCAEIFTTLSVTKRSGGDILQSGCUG
Assay: qHTS Assay for Inhibitors of Mammalian Selenoprotein Thioredoxin Reductase 1 (TrxR1): qHTS; note: nearly all actives have a fitted effect of over 65% in size
Details: recombinant rTrxR1, NADPH fluorescence consumption, selenite substrate; series mostly up to 114 µM; activity change, negative = inhibition: at the top concentration
Summary of the method: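 Rat TrxR1 (90 nM in the dispensed reagent) was pre-reduced with 400 uM NADPH for 5 min at room temperature, then incubated with compound for 15 min. After 400 uM selenite was added, NADPH fluorescence (Ex 340/Em 450 nm) was followed for 8 min.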
% is set by controls: 0 for no effect and ±100 for the full control effect; potency is the fitted concentration of half-maximal effect; tags give direction and shape of the fitted curve.

Row | SMILES | Potency | activity change, negative = inhibition
1 | CC(C)SC1=NC(C)(C)C=C(/C=C/c2ccc(Cl)cc2Cl)N1 | inconclusive: 25.1 µM [inhibitor, single point] | –
2 | O=C(c1ccc(F)cc1)N1CCN(Cc2ccccc2)CC1 | – | inactive: 11.8% [at 57.1 µM]
3 | O=[N+]([O-])c1cccc(/C([O-])=C(/C(=S)Nc2ccccc2F)[n+]2ccccc2)c1 | – | inactive: 10.2% [at 57.1 µM]
4 | CCOc1ccc(S(=O)(=O)N2CCCC(C(=O)N3CCN(c4ccccc4)CC3)C2)cc1 (centres undefined) | – | inactive: 21.8%
5 | COc1ccccc1NC(=O)CSc1nn2c(=O)c(C)nnc2s1 | inconclusive: 56.2 µM [inhibitor, partial curve, poor fit] | –
6 | Cc1cc(/C=C2\SC(=O)N(C)C2=O)c(C)n1-c1cccc(C(=O)O)c1 | inconclusive: 50.1 µM [inhibitor, partial curve] | –
7 | COc1cc(/C=C2\SC(=O)N(Cc3ccc(F)cc3)C2=O)cc([N+](=O)[O-])c1O | – | inactive: -19.4%
8 | O=C(N/N=C/c1ccc(O)c(O)c1)c1cccc(S(=O)(=O)N2CCCCC2)c1 | – | inactive: 16.3% [at 57.1 µM]
9 | CCOc1cc(C=NN2CCCCCC2)ccc1O | – | inactive: 0.243% [at 57.1 µM]
10 | Cc1csc(=Nc2ccc(S(=O)(=O)N3CCOCC3)cc2)n1Cc1ccco1 | inconclusive: 89.1 µM [inhibitor, single point] and inconclusive: 28.2 µM [inhibitor, partial curve, poor fit] | –
11 | CN(C)S(=O)(=O)c1ccc(Cl)c(NC(=O)COC(=O)/C=C/c2ccco2)c1 | inconclusive: 39.8 µM [inhibitor, single point] | –
12 | COc1ccc(-c2nc3ccc(NC(C)=O)cc3c(=O)n2Cc2cccc(Cl)c2)cc1COc1ccc(NC(C)=O)cc1 | active: 14.1 µM | –
13 | COC(=O)c1sc(NC(=O)c2ccc(Cn3cc(Cl)cn3)o2)c(C#N)c1C | inconclusive: 6.31 µM [inhibitor, partial curve, poor fit] | –
14 | Cc1ccc(OCCN2C(=O)C(=O)c3cc(C)ccc32)cc1 | – | inactive: 20.7%
15 | N/C(=N\N=C\c1ccc(Br)o1)c1nonc1N | inconclusive: 56.2 µM [inhibitor, partial curve, poor fit] | –
16 | Cc1ccc(C2C(C(=O)c3cccs3)=C(O)C(=O)N2CCN2CCOCC2)o1 (centres undefined) | inconclusive: 10 µM [inhibitor, partial curve] | –
17 | Cc1ccc(NCc2cccn2-c2nnc(N3CCC(C(=O)NCc4ccccc4C)CC3)s2)cc1 | inconclusive: 79.4 µM [inhibitor, single point] | –
18 | Cn1c2ccccc2c(=O)c2cc(C#CC3=CCCCC3)ccc21 | inconclusive: 25.1 µM [inhibitor, single point] | –
19 | CC(=O)COC(=O)C1CCN(S(=O)(=O)c2cc([N+](=O)[O-])ccc2Cl)CC1 | inconclusive: 44.7 µM [inhibitor, partial curve] | –
20 | O=C(CC1C(=O)NCCN1Cc1cccc(C(F)(F)F)c1)NC1CCCCCC1 (centres undefined) | inconclusive: 39.8 µM [inhibitor, partial curve] | –
21 | COC(=O)[C@@H]1C[C@]2(Br)c3ccccc3N(S(=O)(=O)c3ccccc3)[C@@H]2N1C(=O)OC | inconclusive: 25.1 µM [inhibitor, partial curve, poor fit] | –
22 | Clc1ccc(-c2csc3ncnc(Sc4nnnn4C4CC4)c23)cc1 | – | inactive: 7.38%

Row | SMILES | Potency | activity change, negative = inhibition
23 | Cc1sc2nc(-c3ccccc3)oc(=O)c2c1C | – | inactive: 12.9% [at 57.1 µM]
24 | Cn1ccnc1SCC(=O)c1ccc(Cl)cc1 | – | inactive: -0.337%
25 | CN(c1ccccc1)S(=O)(=O)c1ccc(NC(=S)Nc2ccccc2)cc1 | inconclusive: 14.1 µM [inhibitor, partial curve, poor fit] | –
26 | Cc1ccc(C2=NN=C(NC(=O)CSc3nnc4c5ccccc5n(C)c4n3)SC2)cc1 | – | inactive: 18.1% [at 57.1 µM]
27 | O=C(Cc1ccc([N+](=O)[O-])cc1)c1c(O)cc(O)cc1O | active: 3.55 µM | –
28 | CC(=O)Nc1nc2n(n1)C(c1ccc(Cl)cc1)C=C(C)N2 (centres undefined) | inconclusive: 100 µM [inhibitor, single point] | –
29 | CCOc1ccccc1Nc1nc2ccccc2n1C(C)C | – | inactive: -0.416% [at 57.1 µM]
30 | CCO[C@@H]1OC(C(=O)NCc2nc3ccccc3[nH]2)=C[C@H](c2ccccc2)[C@H]1CCCO | inconclusive: 39.8 µM [inhibitor, partial curve, poor fit] | –
31 | CCOC(=O)/C=C1\CN(Cc2cc(OC)c(OC)c(OC)c2)S(=O)(=O)c2ccccc21 | inactive | –
32 | O=C1C=CC2=C3c4cc(O)c(O)cc4CC3(O)COC2=C1O (centres undefined) | active: 15.8 µM | –
33 | COc1cccc(NC(=O)C2CC(=O)N(Cc3ccco3)C2)c1 (centres undefined) | inconclusive: 70.8 µM [inhibitor, partial curve, poor fit] | –
34 | Cc1nc2ccccc2nc1-c1csc(-c2ccccc2)n1 | inconclusive: 50.1 µM [inhibitor, partial curve, poor fit] | –
35 | COc1ccc(NC(=O)/C(Cl)=C(/Cl)S(=O)Cc2ccccc2Cl)cn1 (centres undefined) | inconclusive: 0.355 µM [inhibitor, full curve, poor fit] | –
36 | CCOc1ccc(OCCNC(=O)c2cc(C3CC3)nc3c2cnn3C(C)C)cc1 | – | inactive: -5.9%
37 | O=C(Oc1ccc(N(Cc2cccs2)C2=NS(=O)(=O)c3ccccc32)cc1)c1ccccc1Cl | inconclusive: 70.8 µM [inhibitor, single point] | –
38 | O=C(c1ccccc1F)N1CCN(c2ccc([N+](=O)[O-])cc2-n2cccc2)CC1 | – | inactive: 11.6%
39 | N[C@H](Cc1ccc(O)c(O)c1)C(=O)O | inconclusive: 26.7 µM [inhibitor, partial curve] | –
40 | CC(C)(CNC(=O)C1CCN(S(=O)(=O)c2cc([N+](=O)[O-])ccc2Cl)CC1)N1CCOCC1 | inconclusive: 70.8 µM [inhibitor, partial curve] | –
41 | CCOC(=O)C1CCN(C(c2cc3ccc(C)c(C)c3[nH]c2=O)c2nnnn2C2CCCCC2)CC1 (centres undefined) | inconclusive: 35.5 µM [inhibitor, partial curve] | –
42 | CC(=O)c1c(N2CCN(CCO)CC2)nc(=S)n(-c2ccccc2)c1C | – | inactive: 8.83% [at 57.1 µM]
43 | O=C(C1CCCCC1)N(Cc1cccnc1)c1nc2c(F)cccc2s1 | – | inactive: 6.42% [at 57.1 µM]
44 | Cc1cc(Br)ccc1OCCOCCN1CCCC1 | – | inactive: 19%
